Experimental data from article PMC2937989 (The Journal of Biological Chemistry, 2010).

Target: the molecule itself
Test: SEC

B1: full-length murine MESDc1 ([…]) (natural protein)
chain: not shown
- stoichiometry N: 2
